Results from PubChem BioAssay AID1671194 (National Center for Advancing Translational Sciences (NCATS), 2021).
About 240 (0.17%) of roughly 140,000 compounds were called active. Inconclusive results, whose numbers are uncertain, are shown with a selection of clear calls. Calls come from the whole dose curve; as a rule, active = well fitted inhibition curve with a large enough effect; inconclusive = small, poorly fitted or top-dose-only effect; inactive = no such curve, though single readings can be large or run the other way. Potencies beside an inconclusive call are fits to weak or partial responses and may not hold up.

experiment: Primary qHTS assay for inhibitors of alpha-synuclein gene (SNCA) expression; conditions: HEK-293 SNCA-luciferase knock-in, luminescence, 24 h; series mostly up to 57.2 µM; note: nearly all actives have a fitted effect of over 45% in size
Potency is the fitted concentration of half-maximal effect; tags give direction and shape of the fitted curve.

Potency, inconclusive:
COc1ccc(CNc2ncnc3c2c(-c2ccccc2)cn3-c2cccc(C)c2)cc1 2.82 µM [inhibitor, single point]
COc1ccc(-c2noc(-c3cccn3CC(=O)N(C)c3ccc(F)cc3)n2)cc1F 15.8 µM [inhibitor, single point]
CCC(C)S(=O)(=O)c1oc(-c2ccc(F)cc2)nc1S(=O)(=O)c1ccc(F)cc1 (centres undefined) 31.6 µM [inhibitor, single point]
Cc1cc2nc3n(c(=O)c2n1CC(=O)Nc1cc(F)cc(F)c1)CCCCC3 39.8 µM [inhibitor, single point]
Cc1nn2c(NCCc3ncc[nH]3)cc(-c3ccccc3)nc2c1C 3.16 µM [inhibitor, single point]
COCC(=O)N(C1CCOCC1)C1CCN(C(=O)Cc2ccccc2Cl)CC1 20 µM [inhibitor, single point]
CCCCc1cc(C[C@H]2CNCC[C@H]2CC(=O)N(C)Cc2ccccc2)no1 56.2 µM [inhibitor, single point]
CC(C)C1CN(C(=O)C(=O)c2ccco2)CCC(=O)N1CC1CC1 (centres undefined) 3.55 µM [inhibitor, single point]
CN(Cc1ccccc1)C(=O)c1ccc(CSc2nc3cccnc3n2Cc2ccccc2)cc1 39.8 µM [inhibitor, single point]
COc1ccc(-c2nc3ccccc3o2)cc1NC(=O)c1cc(Br)ccc1OC 39.8 µM [inhibitor, single point]
CCC1CCCCN1CCCNC(=O)c1ccc2c(c1)N(Cc1cccc(Cl)c1)C(=O)c1ccccc1S2(=O)=O (centres undefined) 39.8 µM [inhibitor, partial curve, poor fit]
COc1ccc(OCC(=O)N2CCN(C(=O)c3ccc(OC)c(OC)c3)CC2)cc1 1.58 µM [inhibitor, full curve, poor fit]
COc1ccccc1C(=O)NC[C@@H]1C=C(C)[C@H](Cc2nc3ccccc3[nH]2)C[C@H]1C(C)C 35.5 µM [inhibitor, single point]
COc1ccccc1CN1CCC(CNC(=O)c2cnn(-c3cccc(Cl)c3)c2C2CCN(C(=O)OC(C)(C)C)CC2)CC1 22.4 µM [inhibitor, single point]
O=C(CCNS(=O)(=O)c1ccc2c(c1)CCN2C(=O)C1CC1)Nc1ccc(Cl)cc1 39.8 µM [inhibitor, single point]
Cc1cccc(-n2ncc3c2CCCC3NC(=O)c2c(F)ccc(F)c2F)c1C (centres undefined) 28.2 µM [inhibitor, partial curve, poor fit]
Cc1ccc2occ(CC(=O)Nc3c(C)cccc3C)c2c1 11.2 µM [inhibitor, partial curve]
COc1ncc(C(=O)NCc2cccnc2N2CCN(C(C)=O)CC2)cn1 3.16 µM [inhibitor, full curve, poor fit]
O=C(Cc1ccc(F)cc1)N1CCC2(COc3ccncc3[S+](=O)([O-])N2)C1 (centres undefined) 28.2 µM [inhibitor, partial curve, poor fit]
Cc1cc(C(=O)NC(C)c2nc3ccccc3[nH]2)cc(S(N)(=O)=O)c1C (centres undefined) 17.8 µM [inhibitor, partial curve, poor fit]
Cc1cccc(NC(=O)CN2C(=O)C(c3ccc(F)cc3)=NC23CCCCCC3)c1C 39.8 µM [inhibitor, single point]
CCN(CC)C(=O)C[C@@H]1CCNC[C@@H]1Cc1cc(-c2ccc(OC)cc2)on1 56.2 µM [inhibitor, single point]
COc1ccccc1C(=O)NC(=O)Nc1ccc(-c2cc(C(F)(F)F)nn2-c2ccccc2)cc1 7.08 µM [inhibitor, single point]
O=C1CCC2(CCN1CC1CC1)CCN(C(=O)c1ccc3c(c1)OCO3)CC2 28.2 µM [inhibitor, single point]
COc1ccc(Nc2nccc3c(=O)cc(N4CCOCC4)oc23)cn1 11.2 µM [inhibitor, single point]
Cn1c(NCCCO)nc2c1c(=O)n(Cc1cccc(F)c1)c(=O)n2C 0.178 µM [inhibitor, partial curve, poor fit]
COc1ccccc1-c1ccc(C(=O)N2CCC(NC(=O)Nc3ccc(Cl)cc3)CC2)cc1 14.1 µM [inhibitor, partial curve, poor fit]
O=C(NCCO)c1ccc(-c2nnc(Nc3ccc(OC(F)(F)Cl)cc3)c3ccccc23)cc1 28.2 µM [inhibitor, partial curve, poor fit]
Cc1cc2nc(-c3ccc(OCc4ccccc4F)cc3)cc(C(F)(F)F)n2n1 0.199 µM [inhibitor, full curve, poor fit]
Cc1cccc(-c2noc(CCC(=O)N3CCC(C)(c4noc(C)n4)CC3)n2)c1 2.24 µM [inhibitor, full curve]
COc1ccccc1CCC(=O)N1CCC(Cc2nc(-c3ccccc3)no2)CC1 10 µM [inhibitor, partial curve, poor fit]
CC(C)NC(=O)C[C@@H]1CCNC[C@@H]1Cc1cc(-c2ccccc2)on1 4.47 µM [inhibitor, full curve]
Cc1cccc(-n2ncc(C(=O)NCc3ccc4c(c3)OCO4)c2C2CCN(C(=O)OC(C)(C)C)CC2)c1 28.2 µM [inhibitor, single point]
O=[S+]([O-])(c1ccccc1)N1CC2(COCCN(Cc3ccc(Cl)cc3)C2)C1 11.2 µM [inhibitor, single point]
CCc1cccc(C)c1NC(=O)CN1C(=O)c2cccc3cccc1c23 39.8 µM [inhibitor, single point]
CC1(C)C[C@H]2C[C@@H](O)[C@H](N3CCN(c4ccc(C(F)(F)F)cn4)CC3)[C@]2(O)CO1 1.12 µM [inhibitor, full curve, poor fit]
COc1ccc(NC(=O)CCS(=O)(=O)c2ccc3c(c2)n(C)c(=O)c(=O)n3C)cc1Cl 3.16 µM [inhibitor, partial curve, poor fit]
Cc1ccc(Nc2ccnc(N3CCCC(C(=O)NCc4ccc5c(c4)OCO5)C3)n2)cc1 (centres undefined) 39.8 µM [inhibitor, single point]
COc1ccc(Br)cc1CNC(=O)CSc1n[nH]c(-c2ccccc2)n1 39.8 µM [inhibitor, single point]
COc1ccc(CN2CCC3(C2)C(=O)N(Cc2ccccc2)c2ccccc23)cc1 (centres undefined) 10 µM [inhibitor, partial curve, poor fit]
CC1=C(C(=O)Nc2ccccc2)C(c2ccc(O)cc2)n2nc(-c3ccc(Cl)cc3)nc2N1 (centres undefined) 39.8 µM [inhibitor, single point]

Potency, inactive:
C=CCNC(=O)c1cnn2c1CN(C(=O)c1cccnc1)CC2
COc1ccc(-c2cc(C[C@@H]3CC[C@H](O)[C@@H](CNC4CCOCC4)O3)no2)cc1
O=C(c1cc(Cl)ccc1F)N1CCC(c2n[nH]c(=O)n2-c2ccccc2)CC1
O=C(c1cncc(Br)c1)N1CCCC(Cc2nc(C3CCOCC3)no2)C1 (centres undefined)
Cc1nnsc1C(=O)N[C@H]1CCN2C(=O)N(c3ccc(F)c(Cl)c3)C(=O)[C@@H]2C1
COc1ccc(NC(=O)c2ccc(CN3C(=O)NC4(CCOCC4)C3=O)cc2)cc1
COc1ccc(C2(C(=O)N3CCC4(CC3)CC(N(C(C)=O)C3CC3)CCO4)CC2)cc1 (centres undefined)
O=C(Nc1ccc(Cl)cc1Cl)c1ccc2ccnn2c1
Cc1cn2nc(C(=O)NCc3ccccc3F)cc2c(N2CCCC2)n1
COc1cccc(CN2Cc3cc(NC(=O)c4ccc([N+](=O)[O-])cc4)ccc3OCC2=O)c1OC
CC(C)N1CCC(OCCCNC(=O)C2Cn3cccc3C(=O)N2C)CC1 (centres undefined)
NC(=O)c1cccc(CN2CCC3(Cc4ccccc4N(C(=O)C4CCCC4)C3)C2)c1 (centres undefined)
COc1cccc(S(=O)(=O)N2CCC3(C2)C(=O)Nc2ccccc23)c1 (centres undefined)
COc1ccc(-c2noc([C@@H]3C[C@@H](O)CN3Cc3cccs3)n2)cc1
Cc1ccccc1CN1CCc2c(n(Cc3ccccc3)n(-c3ccccc3)c2=O)C1
COc1ccc(CN2CCOc3nc(-c4ccc(O)c(F)c4)ncc3C2=O)cc1
O=C(NC1CC1)c1nc(-c2cccc(F)c2)c2cnccn12
Cc1cc2cc(C(=O)N3CCN(c4ncccc4C#N)CC3)ccc2o1
CCOc1cccc(CN2CCC(Oc3ccc(-c4noc(C5CC5)n4)cc3)C2)c1 (centres undefined)
CCOc1ccccc1C(=O)N1[C@@H]2CC[C@H]1CC(NC(=O)c1ccncc1)C2 (some centres undefined)
Cc1cccc(OCC(=O)N2CCC3(CC2)CN(c2ncccn2)CC3CO)c1 (centres undefined)
O=C(CCC(F)(F)F)N1CCCC(CCc2c(F)cccc2F)C1 (centres undefined)
CCc1ccc(S(=O)(=O)N2CCC(n3cnnc3-c3ccccc3)CC2)cc1
